# In PubChem BioAssay AID485294 (National Center for Advancing Translational Sciences (NCATS), 2010):
# In all, about 370,000 compounds went through this assay and about 150 (0.041%) were called active. This list was built around the results that the source calls inconclusive (neither active nor inactive); the mix of calls is not that of the screen. The call rests on the fitted dose curve; in most records, active means well fitted inhibition curve with a large enough effect; inconclusive means small, poorly fitted or top-dose-only effect; inactive means flat fitted curve, though single readings scatter. No potency is given beside an inconclusive call; the fits are too rough.
# Target: Beta-lactamase (Escherichia coli (strain K12)) (UniProt P00811)
# Test: qHTS Inhibitors of AmpC Beta-Lactamase (assay with detergent); further: nearly all actives have a fitted effect of over 25% in size;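 on activity change, negative = inhibition: 0% = no-compound wells and -100% = no-enzyme wells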
# Conditions: AmpC hydrolysis of nitrocefin, absorbance 480 nm, 0.01% Triton; activity change, negative = inhibition: at 114 µM (top of the series)
# Procedure, shortened: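 AmpC (5.3 nM in the dispensed reagent) in 20 mM phosphate pH 7.0 with 0.01% (detergent screen) or 0.0001% Triton X-100 was preincubated with compounds for 15 min at room temperature. Nitrocefin was then added from an 800 uM solution, and hydrolysis was followed at 480 nm.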
# Potency means the concentration at half of the fitted maximal effect; tags describe the fitted curve by direction and shape.
# UniProt P00811, sequence (P00811 whole entry, looked up): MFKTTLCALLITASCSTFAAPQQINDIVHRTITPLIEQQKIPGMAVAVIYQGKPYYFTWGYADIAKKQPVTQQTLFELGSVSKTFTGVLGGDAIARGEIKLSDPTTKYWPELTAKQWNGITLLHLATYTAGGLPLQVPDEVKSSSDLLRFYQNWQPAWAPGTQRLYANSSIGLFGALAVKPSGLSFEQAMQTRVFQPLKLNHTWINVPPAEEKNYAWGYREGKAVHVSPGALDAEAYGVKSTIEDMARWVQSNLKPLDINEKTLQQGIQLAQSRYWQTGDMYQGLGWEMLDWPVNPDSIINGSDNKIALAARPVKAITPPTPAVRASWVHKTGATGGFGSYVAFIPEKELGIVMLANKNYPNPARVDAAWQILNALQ
SMILES,Potency,"activity change, negative = inhibition"
CCCCN1C(=O)NC(=O)C2(Cc3c(nc4c(C)cccn4c3=O)N3CCc4ccccc4C32)C1=O (centres undefined),"inconclusive [inhibitor, partial curve]",–
COc1ccc(OC)c(C2C(C(=O)c3cccs3)=C(O)C(=O)N2c2cc(C)on2)c1 (centres undefined),–,inactive: -1.75%
O=C(c1ccccc1Cl)N1CCN(CCc2ccccn2)CC1,–,inactive: -4.62%
CC(C)CN(C(=O)COC(=O)c1ccc(Br)cc1)c1c(N)n(Cc2ccccc2)c(=O)[nH]c1=O,"inconclusive [inhibitor, partial curve, poor fit]",–
O=C(NCc1cccc(F)c1F)C1CCC(=O)N(C2CC2)C1 (centres undefined),–,inactive: 6.67%
Cn1nnnc1SCC(=O)N1CCc2ccccc2C1,"inconclusive [inhibitor, full curve, poor fit]",–
COc1ccc(C)cc1NC(=O)CN1C(=O)c2ccccc2S1(=O)=O,"inconclusive [inhibitor, full curve, poor fit]",–
CSc1nnc(Nc2ccccc2C)s1,"inconclusive [inhibitor, single point]",–
C/C(=N\NC(=O)c1cccc(Br)c1)c1ccc(Br)cc1,–,inactive: 4.01%
CN1CCN(CC(=O)Nc2ccc([N+](=O)[O-])cc2Br)CC1,"inconclusive [inhibitor, full curve, poor fit]",–
COc1cccc(NC(=S)N2c3ccccc3CC2C)c1 (centres undefined),"inconclusive [inhibitor, full curve]",–
COc1cc(-n2c(C)nc3cc(C(=O)NCCN4CCOCC4)ccc32)cc(OC)c1OC,"inconclusive [inhibitor, full curve, poor fit]",–
COc1ccc(C2(CCN)CC(C)N(C)CC2C)cc1 (centres undefined),"inconclusive [inhibitor, partial curve, poor fit]",–
O=C(O)c1coc2ccccc12,"inconclusive [inhibitor, full curve]",–
Cc1ccccc1NC(=S)N1CCN(C(=O)c2ccco2)CC1,"inconclusive [inhibitor, full curve, poor fit]",–
CCOc1ccc(CCNC(=O)Cc2ccc(NC(=O)N3CCSc4ncccc43)cc2)cc1,–,inactive: 13.7%
CCOc1ccc(-c2ccc(/C=C3/C(=N)N4C=CSC4=NC3=O)o2)c([N+](=O)[O-])c1,"inconclusive [inhibitor, full curve, poor fit]",–
COc1ccc(Br)cc1CN1C(=O)NC2(CCCCCC2)C1=O,–,inactive: -10.2%
CC(OC(=O)c1nc(Cl)ccc1Cl)C(=O)Nc1ccccc1F (centres undefined),"inconclusive [inhibitor, single point]",–
